About 2,200 (0.71%) of roughly 310,000 compounds showed an effect of 50% or more. Effects have a minus sign here. The list shows a part of the results.
biological target: human ether-à-go-go-related gene (hERG) potassium channel (human, UniProt Q12809); assay: primary screen, population patch clamp on CHO cells stably expressing hERG
Sequence (Q12809 whole entry, looked up): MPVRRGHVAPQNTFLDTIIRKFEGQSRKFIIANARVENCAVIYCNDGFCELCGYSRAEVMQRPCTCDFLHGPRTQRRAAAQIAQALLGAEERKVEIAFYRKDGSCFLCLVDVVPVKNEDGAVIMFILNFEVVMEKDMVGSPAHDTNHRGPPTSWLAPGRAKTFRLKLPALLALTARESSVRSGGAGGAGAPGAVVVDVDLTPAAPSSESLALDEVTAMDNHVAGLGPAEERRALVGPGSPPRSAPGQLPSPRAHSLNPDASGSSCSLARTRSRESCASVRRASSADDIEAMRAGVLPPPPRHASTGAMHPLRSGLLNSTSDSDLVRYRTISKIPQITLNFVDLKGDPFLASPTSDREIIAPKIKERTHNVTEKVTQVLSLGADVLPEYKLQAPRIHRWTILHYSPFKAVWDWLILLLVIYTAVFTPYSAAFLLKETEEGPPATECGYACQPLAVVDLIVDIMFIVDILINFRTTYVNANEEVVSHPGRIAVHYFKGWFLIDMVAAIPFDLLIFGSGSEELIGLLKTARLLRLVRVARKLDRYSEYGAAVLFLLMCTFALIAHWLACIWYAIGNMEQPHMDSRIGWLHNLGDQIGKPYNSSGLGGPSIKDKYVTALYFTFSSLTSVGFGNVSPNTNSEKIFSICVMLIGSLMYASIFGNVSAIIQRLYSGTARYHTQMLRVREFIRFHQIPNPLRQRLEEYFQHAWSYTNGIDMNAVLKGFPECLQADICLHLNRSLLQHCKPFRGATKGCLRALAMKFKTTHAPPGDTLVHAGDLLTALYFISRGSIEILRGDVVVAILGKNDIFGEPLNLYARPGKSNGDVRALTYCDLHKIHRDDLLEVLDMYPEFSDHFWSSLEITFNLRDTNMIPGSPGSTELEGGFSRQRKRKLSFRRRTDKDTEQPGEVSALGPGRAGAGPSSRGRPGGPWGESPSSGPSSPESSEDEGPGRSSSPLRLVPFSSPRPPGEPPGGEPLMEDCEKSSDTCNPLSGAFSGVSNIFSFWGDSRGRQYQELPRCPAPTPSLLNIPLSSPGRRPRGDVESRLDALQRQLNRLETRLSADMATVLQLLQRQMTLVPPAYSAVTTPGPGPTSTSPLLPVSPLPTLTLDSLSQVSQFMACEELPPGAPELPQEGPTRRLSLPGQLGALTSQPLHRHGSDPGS

SMILES	hERG current change (%, negative = inhibition) at 1uM [%]
C=C(C)CN(CC)c1nc(N)c2c(N)nc3c(c2c1C#N)CC(=O)N3C12CC3CC(CC(C3)C1)C2	11.1
COC(=O)C1=C(c2ccc(OC)c(OC)c2)C[C@@H]2CC[C@H]1N2C(=O)NCC1CC1	14.2
O=C(Nc1cccn(Cc2ccccc2)c1=O)NC1CCCCC1	-5.94
Cc1ccc(NS(=O)(=O)c2ccc(NC(=O)[C@@H]3CCCC[C@@H]3C(=O)O)cc2)c(C)c1	16.4
Cc1ccc(S(=O)(=O)C(C#N)c2nc3ccccc3nc2OCCO)cc1 (centres unmarked)	7.01
COc1ccccc1CC(=O)NNC(=O)CN(C)S(=O)(=O)c1ccc(Cl)cc1	-5.18
N/C(=N\OC(=O)c1cccc(Br)c1)c1ccccc1	12.6
CC(=O)Nc1ccc(S(=O)(=O)N(C)c2ccc(OCC(=O)OCC(=O)N3CCCCC3)cc2)cc1	5.74
c1ccc2c(c1)Nc1nccnc1S2	5.22
CC(=O)N(CCC(c1ccccc1)c1ccco1)Cc1cccs1 (centres unmarked)	6.19
C/C(=N\OCC(=O)OCC(=O)N(C)c1ccccc1)c1ccc2c(c1)OCO2	1.54
Cc1ccc(-n2nnc3c(=O)n(CC(=O)OCc4ccccc4)cnc32)cc1	1.45
O=C(OCCOc1ccccc1Cl)c1ccc(-n2cnnn2)cc1	-6.97
Cc1cc(C)c(C(=O)COC(=O)c2cccnc2Cl)c(C)c1	28.1
COC(=O)C(Cc1ccc(O)cc1)N1Cc2ccccc2C1=O (centres unmarked)	12.1
Cc1ccc(-c2csc(=S)n2CC(=O)OCC(=O)NCc2ccc(F)cc2)cc1	3.62
N#CC1=C(N)NC(=S)C(C(N)=O)C1c1ccc(Cl)cc1Cl (centres unmarked)	19.2
O=C(NC(Cc1ccccc1)c1nc2ccccc2[nH]1)c1ccc(Cl)c([N+](=O)[O-])c1 (centres unmarked)	12.3
CC1=C2C3OC(=O)C(C)C3CC[C@@]2(C)C=CC1=O (some centres unmarked)	9.53
O=C(Nc1ccc(N2CCOCC2)cc1)c1cccc2c(Br)cccc12	0.0897
Clc1ccc(/C=N/NC(=Nc2ccccc2)c2ccccn2)c(Cl)c1	2.12
Cl.O=C(Nc1ccccc1)OCC(CN1CCCCC1)OC(=O)Nc1ccccc1 (centres unmarked)	-17.8

SMILES	hERG current change (%, negative = inhibition) at 1uM [%]
O=C(c1ccc(OC2CCN(Cc3ccccn3)CC2)cc1)N1CCCCCC1	-3.76
Cc1ccc(S(=O)(=O)NCc2ccc(C(=O)N3CCN(c4ccccn4)CC3)cc2)cc1	7.55
CCOc1ccc(S(=O)(=O)N2CCN(C(=S)NC3CC3)CC2)cc1	4.08
Cc1ccc2ccc(S(=O)(=O)n3nc(C)cc3C)cc2c1	12.4
CC(=O)N1CCN(Cc2nc3scc(-c4ccccc4)c3c(=O)[nH]2)CC1	4.59
O=C(COc1ccccc1)NNc1nc2ccccc2s1	2.45
CC(Sc1nnc(-c2ccccc2)c(-c2ccccc2)n1)C(=O)Nc1ncc(Cl)cc1Cl (centres unmarked)	10.4
C=CCNC(=O)C(=O)NCC(c1ccc2c(c1)OCO2)N1CCOCC1 (centres unmarked)	16
CC(C)Sc1nnc(Cn2c(=O)sc3ccccc32)n1-c1ccccc1	9.47
COc1cc(OC)c(C(=S)N2CCCC2)cc1OC	12.4
C=CCn1c(SCC(=O)N2CC(C)OC(C)C2)nnc1-c1ccncc1 (centres unmarked)	15.4
COc1cc(-c2ncc3ccccn23)cc(OC)c1OC.O=C(O)C(=O)O	13.8
Cc1ccc(C)c(S(=O)(=O)N2CCN(C(=O)CCC(=O)c3cc(C)sc3C)CC2)c1	-5.32
Cc1ccc(NC(=O)CSC2=C(C#N)C(c3ccco3)CC(=O)N2)cc1 (centres unmarked)	2.3
Cc1ccc(NC(=O)c2ccc(CNc3c(N4CCOCC4)c(=O)c3=O)cc2)cc1	-1.1
CCc1ccccc1NC(=O)CC1CS(=O)(=O)CC1CC(=O)Nc1ccccc1CC (centres unmarked)	7.06
COc1ccc2ccccc2c1/C=N/NC(=O)c1cc(C)[nH]n1	14.4
COc1ccc(OCC(=O)N2CCN(C(=O)COc3ccc(Br)cc3)CC2)cc1	-56.9
Cc1nc(N2CCN(C)CC2)c2cc(-c3ccccc3)sc2n1	7.06
O=C(Nc1cccc([N+](=O)[O-])c1)c1ccc2c(c1)C(=O)N(c1ccccn1)C2=O	-18
COc1ccc(/C=C(\NC(=O)c2ccccc2)C(=O)N/N=C/c2sccc2C)cc1	7.79
N#Cc1ccc(OCC(=O)N(C2CCCCC2)C2CCS(=O)(=O)C2)cc1 (centres unmarked)	-18.3
